Experimental data taken from PMC5556061 (Scientific Reports, 2017).
No constants are given. Whether binding was seen depends on the method and setting. Some entries that bind do so weakly or less than the wild type. Sequences can lack the tags named with a protein.

B1: recombinant human BCAR1 (CAS/BCAR1-GST) (protein, UniProt P56945 1-870)
chain: MNHLNVLAKALYDNVAESPDELSFRKGDIMTVLEQDTQGLDGWWLCSLHGRQGIVPGNRLKILVGMYDKKPAGPGPGPPATPAQPQPGLHAPAPPASQYTPMLPNTYQPQPDSVYLVPTPSKAQQGLYQVPGPSPQFQSPPAKQTSTFSKQTPHHPFPSPATDLYQVPPGPGGPAQDIYQVPPSAGMGHDIYQVPPSMDTRSWEGTKPPAKVVVPTRVGQGYVYEAAQPEQDEYDIPRHLLAPGPQDIYDVPPVRGLLPSQYGQEVYDTPPMAVKGPNGRDPLLEVYDVPPSVEKGLPPSNHHAVYDVPPSVSKDVPDGPLLREETYDVPPAFAKAKPFDPARTPLVLAAPPPDSPPAEDVYDVPPPAPDLYDVPPGLRRPGPGTLYDVPRERVLPPEVADGGVVDSGVYAVPPPAEREAPAEGKRLSASSTGSTRSSQSASSLEVAGPGREPLELEVAVEALARLQQGVSATVAHLLDLAGSAGATGSWRSPSEPQEPLVQDLQAAVAAVQSAVHELLEFARSAVGNAAHTSDRALHAKLSRQLQKMEDVHQTLVAHGQALDAGRGGSGATLEDLDRLVACSRAVPEDAKQLASFLHGNASLLFRRTKATAPGPEGGGTLHPNPTDKTSSIQSRPLPSPPKFTSQDSPDGQYENSEGGWMEDYDYVHLQGKEEFEKTQKELLEKGSITRQGKSQLELQQLKQFERLEQEVSRPIDHDLANWTPAQPLAPGRTGGLGPSDRQLLLFYLEQCEANLTTLTNAVDAFFTAVATNQPPKIFVAHSKFVILSAHKLVFIGDTLSRQAKAADVRSQVTHYSNLLCDLLRGIVATTKAAALQYPSPSAAQDMVERVKELGHSTQQFRRVLGQLAAA
B2: GST-fused CAS SH3 domain (domain or fragment, mouse, UniProt Q61140 3-65, looked up)
chain: VPNVLAKALYDNVAESPDELSFRKGDIMTVLERDTQGLDGWWLCSLHGRQGIVPGNRLKILVG
notes: Crk-associated substrate (CAS), mouse, SH3 domain; also called GST-CAS SH3; GST-SH3; source: E. coli BL21 (DE3), pGEX-2TK, purified (glutathione agarose); not shown: GST, N-terminal, kept

Columns and labels:
Flag-DOK7 (human) = target: T1, Flag-DOK7 (human) (UniProt Q18PE1); assay: far-Western, overlay or dot blot; Flag proteins immunoprecipitated, eluted, run on SDS-PAGE and blotted; membrane incubated overnight with 2 µg/ml recombinant human BCAR1-GST in 1% BSA in TBST; anti-GST antibody; both purified
T1 sequence: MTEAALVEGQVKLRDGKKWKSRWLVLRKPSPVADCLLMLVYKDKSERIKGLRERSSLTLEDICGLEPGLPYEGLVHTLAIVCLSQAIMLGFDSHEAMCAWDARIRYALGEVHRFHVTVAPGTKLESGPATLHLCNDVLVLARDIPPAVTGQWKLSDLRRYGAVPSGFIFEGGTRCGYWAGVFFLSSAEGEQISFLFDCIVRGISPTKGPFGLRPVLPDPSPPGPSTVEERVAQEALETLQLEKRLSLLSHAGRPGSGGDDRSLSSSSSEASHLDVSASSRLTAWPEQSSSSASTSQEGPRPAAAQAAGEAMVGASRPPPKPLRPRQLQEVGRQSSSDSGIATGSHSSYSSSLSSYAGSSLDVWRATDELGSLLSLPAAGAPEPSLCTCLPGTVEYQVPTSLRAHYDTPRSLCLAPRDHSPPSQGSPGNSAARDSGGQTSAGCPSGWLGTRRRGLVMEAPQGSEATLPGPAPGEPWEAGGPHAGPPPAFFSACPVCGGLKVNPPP

[1] = target: T2, Flag-GLIS2 (not stated (cDNA from the BLM melanoma cell line)) (UniProt Q9BZE0); assay: as above
T2 sequence: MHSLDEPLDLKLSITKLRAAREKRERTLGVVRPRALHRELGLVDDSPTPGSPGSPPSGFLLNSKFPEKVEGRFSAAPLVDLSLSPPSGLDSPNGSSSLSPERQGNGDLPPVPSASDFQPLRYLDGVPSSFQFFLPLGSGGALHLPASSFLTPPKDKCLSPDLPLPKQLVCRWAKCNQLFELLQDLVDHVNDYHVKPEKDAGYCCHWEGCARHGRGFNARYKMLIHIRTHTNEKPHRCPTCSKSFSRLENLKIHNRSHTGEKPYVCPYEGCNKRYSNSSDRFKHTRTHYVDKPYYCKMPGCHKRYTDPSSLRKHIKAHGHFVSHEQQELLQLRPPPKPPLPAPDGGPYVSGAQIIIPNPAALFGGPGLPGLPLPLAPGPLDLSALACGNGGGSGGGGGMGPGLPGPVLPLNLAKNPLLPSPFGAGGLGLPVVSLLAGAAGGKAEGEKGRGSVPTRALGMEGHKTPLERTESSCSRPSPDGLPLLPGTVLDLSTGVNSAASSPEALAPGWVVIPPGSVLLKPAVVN

[2] = target: CAS SH3 domain (GST tag removed, for NMR) (mouse) (UniProt Q61140); assay: NMR solution structure; free 15N/13C-labelled CAS SH3 domain; 25 °C; 25 mM sodium phosphate pH 7.5, 100 mM NaCl, 1 mM TCEP; both purified

Binder	binding (Flag-DOK7 (human))	binding [1]	binding [2]
B1	binds	binds	–
B2	–	–	no binding (tested: ~1 mM)
